No constants are given. Whether binding was seen depends on the method and setting. Some results given as binding are weak or reduced against the parent protein; the word gives no strength.
Assays:
[1] = biological target: T1, Inactive, inhibitor-bound TG2 produced in E. coli (TG2-DP3-3) (human), P21980; assay: dynamic light scattering; 0.2 mg/ml inhibitor-bound protein in 20 mM Tris pH 7.2, 150 mM NaCl with 9 mM (also 5 mM and 2.5 mM) CaCl2, 37°C; both purified; details: remark: other sources report otherwise
T1 chain: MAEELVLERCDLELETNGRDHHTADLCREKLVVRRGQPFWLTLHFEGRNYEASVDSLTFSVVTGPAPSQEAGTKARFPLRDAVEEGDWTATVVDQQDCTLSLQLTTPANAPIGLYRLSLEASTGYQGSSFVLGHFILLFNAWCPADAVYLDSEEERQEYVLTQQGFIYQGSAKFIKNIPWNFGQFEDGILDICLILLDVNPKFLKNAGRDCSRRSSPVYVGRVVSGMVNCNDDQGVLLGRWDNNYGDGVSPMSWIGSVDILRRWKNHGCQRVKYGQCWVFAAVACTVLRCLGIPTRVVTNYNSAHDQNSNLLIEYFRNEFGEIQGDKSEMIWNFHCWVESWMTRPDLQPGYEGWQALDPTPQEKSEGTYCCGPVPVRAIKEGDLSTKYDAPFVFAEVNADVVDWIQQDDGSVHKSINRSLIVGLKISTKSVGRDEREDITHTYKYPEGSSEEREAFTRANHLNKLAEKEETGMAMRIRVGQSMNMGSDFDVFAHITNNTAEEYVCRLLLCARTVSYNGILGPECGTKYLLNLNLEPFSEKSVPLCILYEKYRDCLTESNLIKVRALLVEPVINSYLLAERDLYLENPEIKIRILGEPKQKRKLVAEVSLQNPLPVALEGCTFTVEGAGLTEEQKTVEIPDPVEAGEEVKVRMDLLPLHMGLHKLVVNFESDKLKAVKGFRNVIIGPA

[2] = biological target: T1, Inactive, inhibitor-bound TG2 produced …; assay: cross-linking; BS3 (0.5 mM) capture of non-covalent complexes; DP3-3-treated protein pre-incubated with 5 mM CaCl2 for 30 min at 37°C in 20 mM HEPES pH 7.5, 150 mM NaCl; SDS-PAGE; both purified; details: remark: other sources report otherwise
[3] = biological target: T2, TG2 pretreated with the active-site inhibitor DP3-3 (BS3 capture of Fig 2D) (human), P21980; assay: cross-linking; BS3 (0.5 mM) capture of non-covalent complexes; DP3-3-treated protein pre-incubated with 5 mM CaCl2 for 30 min at room temperature in 20 mM HEPES pH 7.5, 150 mM NaCl; SDS-PAGE; both purified; details: remark: other sources report otherwise
T2 chain: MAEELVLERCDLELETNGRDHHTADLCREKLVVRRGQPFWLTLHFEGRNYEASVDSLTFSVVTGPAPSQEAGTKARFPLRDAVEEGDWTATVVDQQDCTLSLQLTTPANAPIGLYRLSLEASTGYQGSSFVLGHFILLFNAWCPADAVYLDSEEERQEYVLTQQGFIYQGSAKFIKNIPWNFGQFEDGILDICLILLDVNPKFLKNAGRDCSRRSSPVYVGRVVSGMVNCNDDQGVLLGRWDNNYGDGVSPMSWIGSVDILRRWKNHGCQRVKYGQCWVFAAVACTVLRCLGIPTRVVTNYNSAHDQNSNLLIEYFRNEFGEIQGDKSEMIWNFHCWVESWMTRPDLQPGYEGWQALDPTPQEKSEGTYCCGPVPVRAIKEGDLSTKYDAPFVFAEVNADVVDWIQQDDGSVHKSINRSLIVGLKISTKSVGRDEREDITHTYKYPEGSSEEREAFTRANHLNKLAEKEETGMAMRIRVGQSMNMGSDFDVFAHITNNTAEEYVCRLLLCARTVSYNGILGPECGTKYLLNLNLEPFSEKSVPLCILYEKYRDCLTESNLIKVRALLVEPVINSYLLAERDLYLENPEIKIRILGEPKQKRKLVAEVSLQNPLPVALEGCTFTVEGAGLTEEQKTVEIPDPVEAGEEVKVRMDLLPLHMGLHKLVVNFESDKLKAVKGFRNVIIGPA

[4] = biological target: T2, TG2 pretreated with the active-site …; assay: cross-linking; BS3 (0.5 mM) capture of non-covalent complexes; DP3-3-treated protein pre-incubated with 5 mM CaCl2 for 30 min at 37°C in 20 mM HEPES pH 7.5, 150 mM NaCl; SDS-PAGE; both purified; details: remark: other sources report otherwise
[5] = biological target: Inactive, inhibitor-bound TG2 produced in E. coli (TG2-DP3-3) (human) (UniProt P21980); assay: dynamic light scattering; 0.2 mg/ml inhibitor-bound protein in 20 mM Tris pH 7.2, 150 mM NaCl with 1 mM EDTA, 37°C; both purified

B1: Inactive, inhibitor-bound TG2 produced in E. coli (TG2-DP3-3), P21980 1-687 (enzyme)
chain: MAEELVLERCDLELETNGRDHHTADLCREKLVVRRGQPFWLTLHFEGRNYEASVDSLTFSVVTGPAPSQEAGTKARFPLRDAVEEGDWTATVVDQQDCTLSLQLTTPANAPIGLYRLSLEASTGYQGSSFVLGHFILLFNAWCPADAVYLDSEEERQEYVLTQQGFIYQGSAKFIKNIPWNFGQFEDGILDICLILLDVNPKFLKNAGRDCSRRSSPVYVGRVVSGMVNCNDDQGVLLGRWDNNYGDGVSPMSWIGSVDILRRWKNHGCQRVKYGQCWVFAAVACTVLRCLGIPTRVVTNYNSAHDQNSNLLIEYFRNEFGEIQGDKSEMIWNFHCWVESWMTRPDLQPGYEGWQALDPTPQEKSEGTYCCGPVPVRAIKEGDLSTKYDAPFVFAEVNADVVDWIQQDDGSVHKSINRSLIVGLKISTKSVGRDEREDITHTYKYPEGSSEEREAFTRANHLNKLAEKEETGMAMRIRVGQSMNMGSDFDVFAHITNNTAEEYVCRLLLCARTVSYNGILGPECGTKYLLNLNLEPFSEKSVPLCILYEKYRDCLTESNLIKVRALLVEPVINSYLLAERDLYLENPEIKIRILGEPKQKRKLVAEVSLQNPLPVALEGCTFTVEGAGLTEEQKTVEIPDPVEAGEEVKVRMDLLPLHMGLHKLVVNFESDKLKAVKGFRNVIIGPA
modifications: here or on the partner: active site covalently linked to the inhibitor Ac-P-DON-LPF-NH2 (DP3-3); active site covalently linked to the inhibitor Ac-P-DON-LPF-NH2 (DP3-3)
[1]
  binding: binds
[2]
  binding: binds

B2: TG2 pretreated with the active-site inhibitor DP3-3 (BS3 capture of Fig 2D), P21980 1-687 (enzyme)
chain: MAEELVLERCDLELETNGRDHHTADLCREKLVVRRGQPFWLTLHFEGRNYEASVDSLTFSVVTGPAPSQEAGTKARFPLRDAVEEGDWTATVVDQQDCTLSLQLTTPANAPIGLYRLSLEASTGYQGSSFVLGHFILLFNAWCPADAVYLDSEEERQEYVLTQQGFIYQGSAKFIKNIPWNFGQFEDGILDICLILLDVNPKFLKNAGRDCSRRSSPVYVGRVVSGMVNCNDDQGVLLGRWDNNYGDGVSPMSWIGSVDILRRWKNHGCQRVKYGQCWVFAAVACTVLRCLGIPTRVVTNYNSAHDQNSNLLIEYFRNEFGEIQGDKSEMIWNFHCWVESWMTRPDLQPGYEGWQALDPTPQEKSEGTYCCGPVPVRAIKEGDLSTKYDAPFVFAEVNADVVDWIQQDDGSVHKSINRSLIVGLKISTKSVGRDEREDITHTYKYPEGSSEEREAFTRANHLNKLAEKEETGMAMRIRVGQSMNMGSDFDVFAHITNNTAEEYVCRLLLCARTVSYNGILGPECGTKYLLNLNLEPFSEKSVPLCILYEKYRDCLTESNLIKVRALLVEPVINSYLLAERDLYLENPEIKIRILGEPKQKRKLVAEVSLQNPLPVALEGCTFTVEGAGLTEEQKTVEIPDPVEAGEEVKVRMDLLPLHMGLHKLVVNFESDKLKAVKGFRNVIIGPA
modifications: here or on the partner: active site covalently linked to the inhibitor Ac-P-DON-LPF-NH2 (DP3-3); active site covalently linked to the inhibitor Ac-P-DON-LPF-NH2 (DP3-3)
[3]
  binding: binds
[4]
  binding: binds

B3: Inactive, inhibitor-bound TG2 produced in E. coli (TG2-DP3-3) (enzyme, UniProt P21980 1-687)
chain: MAEELVLERCDLELETNGRDHHTADLCREKLVVRRGQPFWLTLHFEGRNYEASVDSLTFSVVTGPAPSQEAGTKARFPLRDAVEEGDWTATVVDQQDCTLSLQLTTPANAPIGLYRLSLEASTGYQGSSFVLGHFILLFNAWCPADAVYLDSEEERQEYVLTQQGFIYQGSAKFIKNIPWNFGQFEDGILDICLILLDVNPKFLKNAGRDCSRRSSPVYVGRVVSGMVNCNDDQGVLLGRWDNNYGDGVSPMSWIGSVDILRRWKNHGCQRVKYGQCWVFAAVACTVLRCLGIPTRVVTNYNSAHDQNSNLLIEYFRNEFGEIQGDKSEMIWNFHCWVESWMTRPDLQPGYEGWQALDPTPQEKSEGTYCCGPVPVRAIKEGDLSTKYDAPFVFAEVNADVVDWIQQDDGSVHKSINRSLIVGLKISTKSVGRDEREDITHTYKYPEGSSEEREAFTRANHLNKLAEKEETGMAMRIRVGQSMNMGSDFDVFAHITNNTAEEYVCRLLLCARTVSYNGILGPECGTKYLLNLNLEPFSEKSVPLCILYEKYRDCLTESNLIKVRALLVEPVINSYLLAERDLYLENPEIKIRILGEPKQKRKLVAEVSLQNPLPVALEGCTFTVEGAGLTEEQKTVEIPDPVEAGEEVKVRMDLLPLHMGLHKLVVNFESDKLKAVKGFRNVIIGPA
modifications: active site covalently linked to the inhibitor Ac-P-DON-LPF-NH2 (DP3-3)
[5]
  binding: no binding (condition: with 1 mM EDTA (0.2 mg/ml))

— paper PMC4526674
